Some of these densities may be calculated back from excess volumes.
Assay: xn = mol fraction of the nth substance listed
Conditions: 298.15 K, 101 kPa

CC(=O)[O-].CC[NH3+] + O
Conditions | mass density [kg/m3]
x1 = 0.003 | 998.8
x1 = 0.0103 | 1002.9
x2 = 0 | 1017.7
x2 = 0.2027 | 1024.4
x2 = 0.3481 | 1028.1
x2 = 0.7999 | 1040.7
x2 = 0.8502 | 1038.2
x2 = 0.9436 | 1021.1
x2 = 0.9502 | 1019.1
x2 = 0.96 | 1015.7
x2 = 0.9685 | 1012.5
x2 = 0.9799 | 1007.6

Reference: a compilation of properties of binary mixtures (doi:10.1016/j.molliq.2012.11.030)
